Measured values taken from patent US20240262857A1, “NOVEL UNIVERSAL ANTI-RNA VIRUS AGENTS” (priority 2021, published 2024).

Test system: CHO-K1 cells
Experiment: Mammalian cell HPRT gene mutation assay
Settings: CHO-K1 cells, 10, 3 and 1 μM, after 6-thioguanine selection
Description: FIG. 3 is a chart showing the results of a mammalian cell HPRT gene mutation assay: CHO-K1 cells (hamster cell line) were treated with drugs at the concentration of 10, 3 and 1 μM. After 6-thioguanine selection, resistant cell colonies were counted as a measure of HPRT knockout mutations in host cells.
The results are shown in FIG. 3 and in the following table. FIG. 3 is a chart showing the results of a mammalian cell HPRT gene mutation assay: CHO-K1 cells (hamster cell line) were treated with drugs at the concentration of 10, 3 and 1 μM. After 6-thioguanine selection, resistant cell colonies were counted as a measure of HPRT knockout mutations in host cells.

[2H]C1(O)C(O)[C@H](n2ccc(NO)nc2=O)O[C@@H]1CO (stereo partly drawn) [D-NHC]
reduction of the number of 6-thioguanine resistant colonies formed (HPRT knockout mutations) compared with NHC: about 50%
